# Measurements taken from the supplement of paper PMC8728848.
# This is one part of the list.
# B1: Epa1-NP-mutant-E227A (Candida glabrata), Q6VBJ0 (protein)
# chain: MILNPALFLNKCVCIYTTLILLLLTNGGYATSSNDISLASKDPTTFPLGCSPDITTPKKGLSMELYSYDFRKKGSYPCWDAAYLDPNYPRTGYKSHRLLAKVDGVTGNINFYYHATKGCTPQLGHLPASYNYPKPLTMTNFTMLLYGYFRPKVTGFHTFTISADDLLFVNFGAGNAFDCCRRDSSADHFGNYQAYAIWGSKTAKDELTVHLDAGVYYPIRLFYNNRAYDGALSFTFKTESNENTVSDFSEYFFSLDDTEEGCPGLISYDSSCASVKTSKIIGIDYHTETPNENLVPITKTIYHLGIPCTGTTTTPLCGSGFYDPLANKCVTINTSSTSSVTKTTSHTTSKEVSFHSSISSQKTLIPKSIPSPYGPIKSQSIPTEMETSSEISSSEYAFSDVISTPSHSPYTKKHSSLNSSSYTSTVIHSLTSYSISQGIFSTSLSEQNITSKSSTDKFSTATSMSNNITQSSIIISQFSTNNENYTTTSMHTSSDKISTETLNNSISTTTSILFSNSSTILKNNTTIISSDKDTHYHPVNPTIVCSTNKTEIICASITQPSISNSNNHWSSSVLKFNSTTVRSTLPSSAGSNETSINVPFSSSTESNTSTSSTSTSNSKMVRSTLPSSAGSNETSISVPFSSSTESNTSTSSTSTSNSKMVRSTLPSSAGSNETSINVPFSSSTESNTSTSSTSTSNSKTVRSTPFSSAGIIMTSLSQRNNKSASSYASSNSKCYNTADSCRKVHSTPSYLLTSSYTSEGVDYDCSLVSTKLKINDTNCVNNKHTTKSCLKTSVTTTIPTLEIKTARKSSSNTIGLHSYPTSSPNKSISSAPIIGYISSFKTIKTASPSYQTSDLTTITTITSLNNPGSTAVENTHESNDKSRKTSSNDISSKHSVIKETKDAVESSNKSHQTNTLKCSSIIIASSSHNSYESLGGTTLTLTLSKVYSPQNNDTLPFLEISEVNPSRTVLPESSKMMQYLTSTEERNKTARNTIATNIVSISTFHFEGEGNAIRMGYTQLLLMLIGIIVMNIGT
# Key:
# Assay in all cases: glycan array binding signal (z-score within array); higher = stronger binding
# Settings in all cases: glycan notation: IUPAC condensed, linker removed; mutation: E227A
# [1] = molecular target: Neu5Ac(a2-3)Gal(b1-4)GlcNAc(b1-3)[Neu5Ac(a2-3)Gal(b1-4)GlcNAc(b1-6)]GalNAc
# Method in brief: (§1)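 Negative Z-scores can be read as non-binding. The Z-score is calculated within each array and then averaged across arrays of one protein sequence at different concentrations or buffers and across linkers. Arrays, 3228 in all, were curated from the Consortium for Functional Glycomics database and kept only where the protein sequence was available.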
# [2] = molecular target: Neu5Ac(a2-3)Gal(b1-4)GlcNAc(b1-6)GalNAc
# Method in brief: as §1
# [3] = molecular target: Neu5Ac(a2-3)Gal(b1-4)GlcNAc(b1-6)[Gal(b1-3)]GalNAc
# Method in brief: as §1
# [4] = molecular target: Neu5Ac(a2-3)Gal(b1-4)GlcNAc(b1-6)[Neu5Ac(a2-3)Gal(b1-3)]GalNAc
# Method in brief: as §1
# [5] = molecular target: Neu5Ac(a2-3)Gal(b1-4)GlcNAc6S
# Method in brief: as §1
# [6] = molecular target: Neu5Ac(a2-3)Gal(b1-4)[Fuc(a1-3)]GlcNAc
# Method in brief: as §1
# [7] = molecular target: Neu5Ac(a2-3)Gal(b1-4)[Fuc(a1-3)]GlcNAc(b1-2)Man
# Method in brief: as §1
# [8] = molecular target: Neu5Ac(a2-3)Gal(b1-4)[Fuc(a1-3)]GlcNAc(b1-3)Gal
# Method in brief: as §1
# [9] = molecular target: Neu5Ac(a2-3)Gal(b1-4)[Fuc(a1-3)]GlcNAc(b1-3)Gal(b1-4)GlcNAc
# Method in brief: as §1
# [10] = molecular target: Neu5Ac(a2-3)Gal(b1-4)[Fuc(a1-3)]GlcNAc(b1-3)Gal(b1-4)[Fuc(a1-3)]GlcNAc(b1-3)Gal(b1-4)[Fuc(a1-3)]GlcNAc
# Method in brief: as §1
# [11] = molecular target: Neu5Ac(a2-3)Gal(b1-4)[Fuc(a1-3)]GlcNAc(b1-3)GalNAc
# Method in brief: as §1
# [12] = molecular target: Neu5Ac(a2-3)Gal(b1-4)[Fuc(a1-3)]GlcNAc(b1-6)[Gal(b1-3)]GalNAc
# Method in brief: as §1
# [13] = molecular target: Neu5Ac(a2-3)Gal(b1-4)[Fuc(a1-3)]GlcNAc(b1-6)[Neu5Ac(a2-3)Gal(b1-3)]GalNAc
# Method in brief: as §1
# [14] = molecular target: Neu5Ac(a2-3)Gal(b1-4)[Fuc(a1-3)]GlcNAc6S
# Method in brief: as §1
# [15] = molecular target: Neu5Ac(a2-3)Gal6S(b1-4)GlcNAc
# Method in brief: as §1
# [16] = molecular target: Neu5Ac(a2-3)Gal6S(b1-4)[Fuc(a1-3)]GlcNAc
# Method in brief: as §1
# Neu5Ac(a2-3)GalNAc = molecular target: Neu5Ac(a2-3)GalNAc
# Method in brief: as §1
# [17] = molecular target: Neu5Ac(a2-3)GalNAc(b1-4)GlcNAc
# Method in brief: as §1
# [18] = molecular target: Neu5Ac(a2-3)[GalNAc(b1-4)]Gal(b1-4)Glc
# Method in brief: as §1
# [19] = molecular target: Neu5Ac(a2-3)[GalNAc(b1-4)]Gal(b1-4)GlcNAc
# Method in brief: as §1
# [20] = molecular target: Neu5Ac(a2-3)[GalNAc(b1-4)]Gal(b1-4)GlcNAc(b1-3)GalNAc
# Method in brief: as §1
# [21] = molecular target: Neu5Ac(a2-3)[Neu5Ac(a2-6)]GalNAc
# Method in brief: as §1
# Neu5Ac(a2-6)Gal = molecular target: Neu5Ac(a2-6)Gal
# Method in brief: as §1
# [22] = molecular target: Neu5Ac(a2-6)Gal(b1-3)GlcNAc(b1-3)[Gal(b1-4)GlcNAc(b1-6)]Gal(b1-4)Glc
# Method in brief: as §1
# Neu5Ac(a2-6)Gal(b1-4)Glc = molecular target: Neu5Ac(a2-6)Gal(b1-4)Glc
# Method in brief: as §1
# [23] = molecular target: Neu5Ac(a2-6)Gal(b1-4)GlcNAc
# Method in brief: as §1
# [24] = molecular target: Neu5Ac(a2-6)Gal(b1-4)GlcNAc(b1-2)Man
# Method in brief: as §1
# [25] = molecular target: Neu5Ac(a2-6)Gal(b1-4)GlcNAc(b1-2)Man(a1-3)Man(b1-4)GlcNAc(b1-4)GlcNAc
# Method in brief: as §1
# [26] = molecular target: Neu5Ac(a2-6)Gal(b1-4)GlcNAc(b1-2)Man(a1-3)[Gal(b1-4)GlcNAc(b1-2)Man(a1-6)]Man(b1-4)GlcNAc(b1-4)GlcNAc
# Method in brief: as §1
# [27] = molecular target: Neu5Ac(a2-6)Gal(b1-4)GlcNAc(b1-2)Man(a1-3)[GlcNAc(b1-2)Man(a1-6)]Man(b1-4)GlcNAc(b1-4)GlcNAc
# Method in brief: as §1
binder,measurement,setting,value
B1,glycan array binding signal (z-score),[1],-0.186
same,glycan array binding signal (z-score),[2],-0.176
same,glycan array binding signal (z-score),[3],0.715
same,glycan array binding signal (z-score),[4],-0.222
same,glycan array binding signal (z-score),[5],-0.172
same,glycan array binding signal (z-score),[6],-0.193
same,glycan array binding signal (z-score),[7],-0.224
same,glycan array binding signal (z-score),[8],-0.199
same,glycan array binding signal (z-score),[9],-0.163
same,glycan array binding signal (z-score),[10],-0.219
same,glycan array binding signal (z-score),[11],-0.12
same,glycan array binding signal (z-score),[12],-0.152
same,glycan array binding signal (z-score),[13],-0.16
same,glycan array binding signal (z-score),[14],-0.21
same,glycan array binding signal (z-score),[15],-0.211
same,glycan array binding signal (z-score),[16],-0.204
same,glycan array binding signal (z-score),Neu5Ac(a2-3)GalNAc,-0.211
same,glycan array binding signal (z-score),[17],-0.23
same,glycan array binding signal (z-score),[18],-0.186
same,glycan array binding signal (z-score),[19],-0.187
same,glycan array binding signal (z-score),[20],-0.209
same,glycan array binding signal (z-score),[21],-0.162
same,glycan array binding signal (z-score),Neu5Ac(a2-6)Gal,-0.148
same,glycan array binding signal (z-score),[22],-0.175
same,glycan array binding signal (z-score),Neu5Ac(a2-6)Gal(b1-4)Glc,-0.183
same,glycan array binding signal (z-score),[23],-0.206
same,glycan array binding signal (z-score),[24],-0.178
same,glycan array binding signal (z-score),[25],-0.2
same,glycan array binding signal (z-score),[26],-0.204
same,glycan array binding signal (z-score),[27],-0.205
